# Assay results from the supplement of paper PMC8728848.
# This is one part of the list.
# Columns and labels:
# Test in all cases: glycan array binding signal (z-score within array); higher = stronger binding
# Conditions in all cases: glycan notation: IUPAC condensed, linker removed; mutation: R82H, R255H
# [1] = molecular target: Fuc(a1-2)[Gal(a1-3)]Gal(b1-4)GlcNAc(b1-2)Man(a1-3)[Fuc(a1-2)[Gal(a1-3)]Gal(b1-4)GlcNAc(b1-2)Man(a1-6)]Man(b1-4)GlcNAc(b1-4)GlcNAc
# Outline: (§1)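 From the Consortium for Functional Glycomics database, 3228 arrays were curated, keeping only those whose protein sequence was available. Binding is given as a within-array Z-score averaged across arrays sharing a protein sequence and across linkers. Negative Z-scores can be read as non-binding.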
# [2] = molecular target: Fuc(a1-2)[Gal(a1-3)]Gal(b1-4)GlcNAc(b1-2)Man(a1-3)[Fuc(a1-2)[Gal(a1-3)]Gal(b1-4)GlcNAc(b1-2)Man(a1-6)]Man(b1-4)GlcNAc(b1-4)[Fuc(a1-6)]GlcNAc
# Outline: as §1
# [3] = molecular target: Fuc(a1-2)[Gal(a1-3)]Gal(b1-4)GlcNAc(b1-3)GalNAc
# Outline: as §1
# [4] = molecular target: Fuc(a1-2)[Gal(a1-3)]Gal(b1-4)GlcNAc(b1-3)[Fuc(a1-2)[Gal(a1-3)]Gal(b1-4)GlcNAc(b1-6)]GalNAc
# Outline: as §1
# [5] = molecular target: Fuc(a1-2)[Gal(a1-3)]Gal(b1-4)GlcNAc(b1-6)GalNAc
# Outline: as §1
# [6] = molecular target: Fuc(a1-2)[Gal(a1-3)]Gal(b1-4)[Fuc(a1-3)]Glc
# Outline: as §1
# [7] = molecular target: Fuc(a1-2)[Gal(a1-3)]Gal(b1-4)[Fuc(a1-3)]GlcNAc
# Outline: as §1
# [8] = molecular target: Fuc(a1-2)[Gal(a1-3)]Gal(b1-4)[Fuc(a1-3)]GlcNAc(b1-3)GalNAc
# Outline: as §1
# [9] = molecular target: Fuc(a1-2)[Gal(a1-4)]Gal(b1-4)GlcNAc
# Outline: as §1
# [10] = molecular target: Fuc(a1-2)[GalNAc(a1-3)]Gal
# Outline: as §1
# [11] = molecular target: Fuc(a1-2)[GalNAc(a1-3)]Gal(b1-3)GalNAc(a1-3)[Fuc(a1-2)]Gal(b1-4)GlcNAc
# Outline: as §1
# [12] = molecular target: Fuc(a1-2)[GalNAc(a1-3)]Gal(b1-3)GalNAc(b1-3)Gal(a1-4)Gal(b1-4)Glc
# Outline: as §1
# [13] = molecular target: Fuc(a1-2)[GalNAc(a1-3)]Gal(b1-3)GlcNAc
# Outline: as §1
# [14] = molecular target: Fuc(a1-2)[GalNAc(a1-3)]Gal(b1-3)GlcNAc(b1-2)Man(a1-3)[Fuc(a1-2)[GalNAc(a1-3)]Gal(b1-3)GlcNAc(b1-2)Man(a1-6)]Man(b1-4)GlcNAc(b1-4)GlcNAc
# Outline: as §1
# [15] = molecular target: Fuc(a1-2)[GalNAc(a1-3)]Gal(b1-3)GlcNAc(b1-2)Man(a1-3)[Fuc(a1-2)[GalNAc(a1-3)]Gal(b1-3)GlcNAc(b1-2)Man(a1-6)]Man(b1-4)GlcNAc(b1-4)[Fuc(a1-6)]GlcNAc
# Outline: as §1
# [16] = molecular target: Fuc(a1-2)[GalNAc(a1-3)]Gal(b1-3)GlcNAc(b1-3)GalNAc
# Outline: as §1
# [17] = molecular target: Fuc(a1-2)[GalNAc(a1-3)]Gal(b1-3)GlcNAc(b1-6)GalNAc
# Outline: as §1
# [18] = molecular target: Fuc(a1-2)[GalNAc(a1-3)]Gal(b1-4)Glc
# Outline: as §1
# [19] = molecular target: Fuc(a1-2)[GalNAc(a1-3)]Gal(b1-4)GlcNAc
# Outline: as §1
# [20] = molecular target: Fuc(a1-2)[GalNAc(a1-3)]Gal(b1-4)GlcNAc(b1-2)Man
# Outline: as §1
# [21] = molecular target: Fuc(a1-2)[GalNAc(a1-3)]Gal(b1-4)GlcNAc(b1-2)Man(a1-3)[Fuc(a1-2)[GalNAc(a1-3)]Gal(b1-4)GlcNAc(b1-2)Man(a1-6)]Man(b1-4)GlcNAc(b1-4)GlcNAc
# Outline: as §1
# [22] = molecular target: Fuc(a1-2)[GalNAc(a1-3)]Gal(b1-4)GlcNAc(b1-2)Man(a1-3)[Fuc(a1-2)[GalNAc(a1-3)]Gal(b1-4)GlcNAc(b1-2)Man(a1-6)]Man(b1-4)GlcNAc(b1-4)[Fuc(a1-6)]GlcNAc
# Outline: as §1
# [23] = molecular target: Fuc(a1-2)[GalNAc(a1-3)]Gal(b1-4)GlcNAc(b1-3)Gal(b1-4)GlcNAc
# Outline: as §1
# [24] = molecular target: Fuc(a1-2)[GalNAc(a1-3)]Gal(b1-4)GlcNAc(b1-3)Gal(b1-4)GlcNAc(b1-3)Gal(b1-4)GlcNAc
# Outline: as §1
# [25] = molecular target: Fuc(a1-2)[GalNAc(a1-3)]Gal(b1-4)GlcNAc(b1-3)GalNAc
# Outline: as §1
# [26] = molecular target: Fuc(a1-2)[GalNAc(a1-3)]Gal(b1-4)GlcNAc(b1-3)[Fuc(a1-2)[GalNAc(a1-3)]Gal(b1-4)GlcNAc(b1-6)]GalNAc
# Outline: as §1
# [27] = molecular target: Fuc(a1-2)[GalNAc(a1-3)]Gal(b1-4)GlcNAc(b1-6)GalNAc
# Outline: as §1
# [28] = molecular target: Fuc(a1-2)[GalNAc(a1-3)]Gal(b1-4)[Fuc(a1-3)]GlcNAc
# Outline: as §1
# [29] = molecular target: Fuc(a1-2)[GalNAc(a1-3)]Gal(b1-4)[Fuc(a1-3)]GlcNAc(b1-3)GalNAc
# Outline: as §1
# [30] = molecular target: Fuc(a1-2)[GalNAc(a1-4)]Gal(b1-4)GlcNAc
# Outline: as §1
# [31] = molecular target: Fuc(a1-2)[GalNAc(b1-3)]Gal
# Outline: as §1
# Fuc(a1-3)GlcNAc = molecular target: Fuc(a1-3)GlcNAc
# Outline: as §1
# [32] = molecular target: Fuc(a1-3)[Gal(b1-4)]Glc6S
# Outline: as §1
# [33] = molecular target: Fuc(a1-3)[Gal(b1-4)]GlcNAc
# Outline: as §1
# [34] = molecular target: Fuc(a1-3)[Gal(b1-4)]GlcNAc(b1-2)Man
# Outline: as §1
# [35] = molecular target: Fuc(a1-3)[Gal(b1-4)]GlcNAc(b1-2)Man(a1-3)[Fuc(a1-3)[Gal(b1-4)]GlcNAc(b1-2)Man(a1-6)]Man(b1-4)GlcNAc(b1-4)GlcNAc
# Outline: as §1
# [36] = molecular target: Fuc(a1-3)[Gal(b1-4)]GlcNAc(b1-2)Man(a1-3)[Fuc(a1-3)[Gal(b1-4)]GlcNAc(b1-2)Man(a1-6)]Man(b1-4)GlcNAc(b1-4)[Fuc(a1-6)]GlcNAc
# Outline: as §1
# [37] = molecular target: Fuc(a1-3)[Gal(b1-4)]GlcNAc(b1-3)Gal(b1-3)[Fuc(a1-4)]GlcNAc
# Outline: as §1
# [38] = molecular target: Fuc(a1-3)[Gal(b1-4)]GlcNAc(b1-3)Gal(b1-4)[Fuc(a1-3)]GlcNAc
# Outline: as §1
# [39] = molecular target: Fuc(a1-3)[Gal(b1-4)]GlcNAc(b1-3)Gal(b1-4)[Fuc(a1-3)]GlcNAc(b1-3)Gal(b1-4)[Fuc(a1-3)]GlcNAc
# Outline: as §1
# [40] = molecular target: Fuc(a1-3)[Gal(b1-4)]GlcNAc(b1-3)GalNAc
# Outline: as §1
# [41] = molecular target: Fuc(a1-3)[Gal(b1-4)]GlcNAc(b1-6)GalNAc
# Outline: as §1
# [42] = molecular target: Fuc(a1-3)[Gal(b1-4)]GlcNAc(b1-6)[Gal(b1-3)GlcNAc(b1-3)]Gal(b1-4)Glc
# Outline: as §1
# [43] = molecular target: Fuc(a1-3)[Gal(b1-4)]GlcNAc6S
# Outline: as §1
# [44] = molecular target: Fuc(a1-3)[Gal3S(b1-4)]Glc
# Outline: as §1
binder,measurement,setting,value
"Gal 8 (Mus musculus), Q9JL15 (protein) MGGSHHHHHHGMASMLSLNNLQNIIYNPIIPYVGTITEQLKPGSLIVIRGHVPKDSERFQVDFQLGNSLKPRADVAFHFNPHFKRSSCIVCNTLTQEKWGWEEITYDMPFRKEKSFEIVFMVLKNKFQVAVNGRHVLLYAHRISPEQIDTVGIYGKVNIHSIGFRFSSASALPHTLGDLQSMETSALGLTQINRENIQKPGKLQLSLPFEARLNASMGPGRTVVIKGEVNTNARSFNVDLVAGKTRDIALHLNPHLNVKAFVRNSFLQDAWGEEERNITCFPFSSGMYFEMIIYCDVREFKVAINGVHSLEYKHRFKDLSSIDTLSVDGDIRLLDVRSW",glycan array binding signal (z-score),[1],2.92
same,glycan array binding signal (z-score),[2],0.358
same,glycan array binding signal (z-score),[3],-0.259
same,glycan array binding signal (z-score),[4],0.101
same,glycan array binding signal (z-score),[5],-0.168
same,glycan array binding signal (z-score),[6],-0.247
same,glycan array binding signal (z-score),[7],-0.209
same,glycan array binding signal (z-score),[8],-0.24
same,glycan array binding signal (z-score),[9],-0.239
same,glycan array binding signal (z-score),[10],-0.248
same,glycan array binding signal (z-score),[11],-0.213
same,glycan array binding signal (z-score),[12],-0.253
same,glycan array binding signal (z-score),[13],0.707
same,glycan array binding signal (z-score),[14],7.3
same,glycan array binding signal (z-score),[15],-0.149
same,glycan array binding signal (z-score),[16],-0.205
same,glycan array binding signal (z-score),[17],2.34
same,glycan array binding signal (z-score),[18],-0.185
same,glycan array binding signal (z-score),[19],-0.184
same,glycan array binding signal (z-score),[20],-0.056
same,glycan array binding signal (z-score),[21],6.58
same,glycan array binding signal (z-score),[22],-0.158
same,glycan array binding signal (z-score),[23],-0.08
same,glycan array binding signal (z-score),[24],0.31
same,glycan array binding signal (z-score),[25],-0.198
same,glycan array binding signal (z-score),[26],0.117
same,glycan array binding signal (z-score),[27],-0.255
same,glycan array binding signal (z-score),[28],-0.236
same,glycan array binding signal (z-score),[29],-0.217
same,glycan array binding signal (z-score),[30],-0.283
same,glycan array binding signal (z-score),[31],-0.313
same,glycan array binding signal (z-score),Fuc(a1-3)GlcNAc,-0.108
same,glycan array binding signal (z-score),[32],-0.137
same,glycan array binding signal (z-score),[33],-0.212
same,glycan array binding signal (z-score),[34],-0.217
same,glycan array binding signal (z-score),[35],-0.251
same,glycan array binding signal (z-score),[36],-0.218
same,glycan array binding signal (z-score),[37],-0.269
same,glycan array binding signal (z-score),[38],-0.241
same,glycan array binding signal (z-score),[39],-0.28
same,glycan array binding signal (z-score),[40],-0.053
same,glycan array binding signal (z-score),[41],-0.212
same,glycan array binding signal (z-score),[42],-0.255
same,glycan array binding signal (z-score),[43],-0.248
same,glycan array binding signal (z-score),[44],-0.192
